Measured values reported in the BET-seq Pho4 binding data (Le et al. 2018).
The other results are listed elsewhere or left out. Values were computed here from the reads of four pooled replicates and scatter widely.

Target: T1, Pho4 (S. cerevisiae) (UniProt P07270)
T1 sequence: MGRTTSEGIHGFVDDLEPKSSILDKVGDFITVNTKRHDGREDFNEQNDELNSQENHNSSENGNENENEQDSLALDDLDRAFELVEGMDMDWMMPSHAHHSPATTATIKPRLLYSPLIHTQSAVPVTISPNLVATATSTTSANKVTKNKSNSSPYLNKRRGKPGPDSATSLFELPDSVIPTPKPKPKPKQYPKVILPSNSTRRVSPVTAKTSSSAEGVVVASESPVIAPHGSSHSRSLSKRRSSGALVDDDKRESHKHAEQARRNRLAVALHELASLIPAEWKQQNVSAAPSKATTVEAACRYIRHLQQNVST
Assay: relative binding free energy (BET-seq); higher = weaker binding
Conditions: reference: library average

Sequence	relative binding free energy
GGGAGCACGTGTAGGG	-0.08 kcal/mol
GAGTGCACGTGGTAAG	-0.03 kcal/mol
GGGTTCACGTGGAGTA	0.23 kcal/mol
GGTTGCACGTGTGGAC	0.09 kcal/mol
TGTGTCACGTGGATGT	-0.03 kcal/mol
AGTATCACGTGATCGT	0.3 kcal/mol
TGTGGCACGTGTCAGA	-0.16 kcal/mol
TGACGCACGTGGATTG	-0.05 kcal/mol
GATGGCACGTGATTGA	0.12 kcal/mol
CGTATCACGTGTTTGT	0.08 kcal/mol
TCCTTCACGTGGTATT	0.29 kcal/mol
GGATGCACGTGTGGTG	0.05 kcal/mol
TTTAGCACGTGTTAGT	-0.21 kcal/mol
GGTTACACGTGAGGCG	0.43 kcal/mol
TTGATCACGTGGATTG	0.25 kcal/mol
AGGTTCACGTGTCTTT	0.3 kcal/mol
ATCGACACGTGTTTTT	0.18 kcal/mol
TGGTTCACGTGTGGTA	0.32 kcal/mol
CTTCTCACGTGTTTTG	0.19 kcal/mol
TTGCACACGTGATTGG	0.13 kcal/mol
TCAAGCACGTGTTGGT	-0.17 kcal/mol
ATTTTCACGTGAGTAA	0.25 kcal/mol
GGGTACACGTGGTGTG	0.09 kcal/mol
GTGGCCACGTGAGTGA	0.24 kcal/mol
CTAATCACGTGATTTT	0.32 kcal/mol
TGAATCACGTGAGGTT	0.4 kcal/mol

Sequence	relative binding free energy
GTTTTCACGTGTTCGC	0.4 kcal/mol
TCAAACACGTGTGGGT	0.15 kcal/mol
ATTTGCACGTGGGGAC	-0.09 kcal/mol
TAAAGCACGTGGCGGG	-0.24 kcal/mol
ACATTCACGTGGATGG	0.29 kcal/mol
CTGGGCACGTGTGTTT	-0.05 kcal/mol
GCGGGCACGTGAGGAA	0.12 kcal/mol
TAGTACACGTGCGGGT	0.1 kcal/mol
GGGCGCACGTGGCGGA	-0.21 kcal/mol
TTGTTCACGTGCGTCT	0.34 kcal/mol
ATTGGCACGTGTGCCG	-0.14 kcal/mol
TAAGTCACGTGAGGGT	0.45 kcal/mol
TTCAGCACGTGTCGGT	-0.11 kcal/mol
AATGCCACGTGGGATG	-0.11 kcal/mol
TGGCTCACGTGACAGG	0.36 kcal/mol
TGCGTCACGTGTAAAG	0.12 kcal/mol
CGATGCACGTGTGGTA	-0.14 kcal/mol
GTTGGCACGTGGACGC	0.05 kcal/mol
AGTTTCACGTGGTGAG	0.43 kcal/mol
TATTGCACGTGGGTGG	-0.07 kcal/mol
GTGCGCACGTGGTGTT	-0.05 kcal/mol
TCTCGCACGTGGTTGG	-0.01 kcal/mol
AGGGACACGTGGGTGA	-0.09 kcal/mol
AGAATCACGTGTAAGG	0.28 kcal/mol
GTGATCACGTGAGAGT	0.29 kcal/mol
TTATGCACGTGGGGCA	-0.18 kcal/mol

Sequence	relative binding free energy
AGTTTCACGTGTATGT	0.26 kcal/mol
TGTCGCACGTGGTTGA	-0.05 kcal/mol
TCTGACACGTGGGTTA	-0.02 kcal/mol
TAGTCCACGTGTGGGT	-0.12 kcal/mol
TTTTACACGTGAGGGT	0.29 kcal/mol
CGTTTCACGTGCTGGA	0.3 kcal/mol
TGGCGCACGTGTCTGG	-0.18 kcal/mol
TGGGCCACGTGTTGCT	-0.05 kcal/mol
TAATGCACGTGGGTAA	-0.14 kcal/mol
ATTTGCACGTGAAGGC	0.17 kcal/mol
CGGGGCACGTGTACGG	-0.07 kcal/mol
CTGGACACGTGTGGAG	0.14 kcal/mol
TGGCACACGTGAATGG	0.23 kcal/mol
CTCTGCACGTGGTGGT	-0.15 kcal/mol
TTACGCACGTGCGTTT	-0.03 kcal/mol
GGTGTCACGTGGGTCA	-0.05 kcal/mol
ACGGTCACGTGGTAGG	0.09 kcal/mol
TAAGTCACGTGAGGCG	0.3 kcal/mol
AGTGACACGTGGTAAG	-0.18 kcal/mol
GAGCACACGTGTAGGG	0.16 kcal/mol
TGTAGCACGTGGTGTT	-0.13 kcal/mol
GTGGCCACGTGGCTGT	-0.2 kcal/mol
AAAGGCACGTGCGCGG	-0.23 kcal/mol
TTCTGCACGTGGGGTC	-0.13 kcal/mol
TGCTACACGTGGTATG	-0.02 kcal/mol
GACTTCACGTGTTAGG	0.42 kcal/mol

Sequence	relative binding free energy
TATTGCACGTGGCGGT	-0.2 kcal/mol
TACGGCACGTGTTTGT	-0.03 kcal/mol
GGTGACACGTGAGGTT	0.29 kcal/mol
TCCATCACGTGTGGGT	0.29 kcal/mol
CGTTTCACGTGGGGTT	0.2 kcal/mol
GGGGGCACGTGCCGGG	-0.23 kcal/mol
AAGAGCACGTGAGTAT	0.18 kcal/mol
TAGTCCACGTGGTAGG	0 kcal/mol
GTATTCACGTGTTGGG	0.33 kcal/mol
ATTTCCACGTGTGGTA	0.15 kcal/mol
TTAAGCACGTGGGTTC	-0.26 kcal/mol
ATGGACACGTGCGGGA	-0.04 kcal/mol
GTGATCACGTGGGGCA	-0.16 kcal/mol
CTTATCACGTGATTAT	0.21 kcal/mol
TATGTCACGTGCTGTC	0.12 kcal/mol
CTGTGCACGTGGGCAG	-0.28 kcal/mol
TATCTCACGTGTGTGG	0.3 kcal/mol
TTACTCACGTGGATTG	0.18 kcal/mol
ATTAGCACGTGGTGGC	-0.17 kcal/mol
ATGCTCACGTGTGTGA	-0.01 kcal/mol
TTGGGCACGTGGCAGT	-0.24 kcal/mol
TGTTCCACGTGGGCTT	-0.19 kcal/mol
GGTGACACGTGAATTG	0.36 kcal/mol
TTGGCCACGTGGTAAG	-0.13 kcal/mol
TGAGGCACGTGCGGTT	-0.14 kcal/mol
CTTTCCACGTGGGGTT	-0.07 kcal/mol

Sequence	relative binding free energy
ATAGACACGTGGTTGA	-0.05 kcal/mol
GCGTGCACGTGGTACG	-0.09 kcal/mol
TGAGTCACGTGCGGAA	0.16 kcal/mol
CTATACACGTGATTGT	0.16 kcal/mol
GGGTGCACGTGAATGA	0.37 kcal/mol
TCAATCACGTGGGATT	0.18 kcal/mol
TTGCGCACGTGTGCAT	-0.15 kcal/mol
TTATCCACGTGAAGGT	0.25 kcal/mol
TTCATCACGTGGTGAT	-0.04 kcal/mol
GGTGGCACGTGGAGGA	0.04 kcal/mol
CTTGTCACGTGCATTG	0.14 kcal/mol
TGTTGCACGTGTTATC	-0.03 kcal/mol
TGTAACACGTGAGGTC	0.32 kcal/mol
TTTGGCACGTGTCTTA	-0.05 kcal/mol
CGTATCACGTGGGGGT	0.12 kcal/mol
ATTCGCACGTGGTTAT	-0.14 kcal/mol
GAGGGCACGTGGACTG	-0.01 kcal/mol
GTAAGCACGTGTAAGA	0.14 kcal/mol
TGAGTCACGTGGTCTG	0.11 kcal/mol
GGATTCACGTGATCGT	0.35 kcal/mol
ATATTCACGTGTACAG	0.32 kcal/mol
GCGGACACGTGGTTAG	0 kcal/mol
TGAGGCACGTGAGGAG	0.18 kcal/mol
AGAGGCACGTGGATAA	-0.04 kcal/mol
CGGCACACGTGAGGGC	0.38 kcal/mol
TCCTTCACGTGGAGGG	0.24 kcal/mol

Sequence	relative binding free energy
TTAGGCACGTGGATGT	-0.23 kcal/mol
GTACTCACGTGATGTG	0.37 kcal/mol
GGTTTCACGTGTTAAG	0.3 kcal/mol
TTAGCCACGTGGTAAT	-0.06 kcal/mol
CGCGTCACGTGTTTTG	0.12 kcal/mol
TTAATCACGTGTTCTT	0.02 kcal/mol
GTGGTCACGTGGAACG	0.17 kcal/mol
TTTGTCACGTGGGTTC	0.05 kcal/mol
TGTCTCACGTGGTTGG	0.23 kcal/mol
TTTAGCACGTGGAGAA	0.07 kcal/mol
ATTGGCACGTGGAGGT	-0.1 kcal/mol
TGTATCACGTGGAGTG	0.09 kcal/mol
GCTTTCACGTGGGGAC	0.38 kcal/mol
CGGTGCACGTGGGTCC	-0.08 kcal/mol
GGTAGCACGTGCGGCT	0.06 kcal/mol
TGTCGCACGTGCGGAG	-0.21 kcal/mol
AGAGTCACGTGGAGGG	0.04 kcal/mol
AGTGCCACGTGTAGAG	-0.11 kcal/mol
CGAATCACGTGGGTGG	0.08 kcal/mol
GGGATCACGTGACGTA	0.45 kcal/mol
GGTACCACGTGGGGGT	-0.22 kcal/mol
CATATCACGTGATTTG	0.19 kcal/mol
GACGGCACGTGTATGG	-0.19 kcal/mol
GGAGTCACGTGGCGGA	0.15 kcal/mol
GGTGTCACGTGGTGTT	0.18 kcal/mol
TAGGGCACGTGTTTGG	0 kcal/mol

Sequence	relative binding free energy
TCTGACACGTGGGAGG	-0.11 kcal/mol
TTCGCCACGTGGGGGG	-0.21 kcal/mol
TGATGCACGTGCCTGG	0 kcal/mol
TGAGGCACGTGAGGCT	-0.06 kcal/mol
AGAATCACGTGTTGGT	0.14 kcal/mol
AGGTTCACGTGACTGT	0.51 kcal/mol
TTGGTCACGTGGCAAT	0.12 kcal/mol
TCATCCACGTGGGGGG	-0.09 kcal/mol
GTTAGCACGTGTGAGT	-0.02 kcal/mol
TGTCGCACGTGTGGAG	0.05 kcal/mol
AGTAACACGTGAGGAG	0.06 kcal/mol
TTTGCCACGTGATCGT	0.09 kcal/mol
CATTTCACGTGGTTGG	0.11 kcal/mol
AGTTACACGTGGTATG	-0.05 kcal/mol
TGCTTCACGTGAGGGG	0.29 kcal/mol
TAATGCACGTGTTTGC	-0.05 kcal/mol
ATTGTCACGTGAAGAG	0.25 kcal/mol
AAGCTCACGTGGGGTG	-0.04 kcal/mol
TTTCTCACGTGTATGA	0.39 kcal/mol
TAAGCCACGTGATTGT	0 kcal/mol
AGTCGCACGTGGTGGG	-0.11 kcal/mol
GGTTTCACGTGGCGGT	0.34 kcal/mol
GTGGTCACGTGATTTC	0.24 kcal/mol
TGTCGCACGTGTTGAT	-0.09 kcal/mol
GTTTTCACGTGTGACT	0.24 kcal/mol
AGCCTCACGTGTGTGG	0.09 kcal/mol

Sequence	relative binding free energy
AATGGCACGTGGGTGC	-0.15 kcal/mol
AGTTTCACGTGCAAGG	0.28 kcal/mol
AATTTCACGTGTTGTA	0.13 kcal/mol
GGTGACACGTGAAGTT	0.47 kcal/mol
TAGTGCACGTGCTGTG	-0.11 kcal/mol
ATGGGCACGTGTATTT	-0.07 kcal/mol
TTAAGCACGTGCGTGA	-0.23 kcal/mol
AGGAGCACGTGGATAT	-0.1 kcal/mol
AGGGACACGTGTTGGC	0 kcal/mol
TGGGTCACGTGCGGGC	-0.03 kcal/mol
GGCGGCACGTGGGGTC	-0.09 kcal/mol
ATTCGCACGTGAGTTG	0.17 kcal/mol
AGTCTCACGTGCATGG	0.18 kcal/mol
TGGGTCACGTGTTCAT	0.16 kcal/mol
TGTGACACGTGGTTGA	-0.13 kcal/mol
ACATTCACGTGAGGGG	0.39 kcal/mol
GTCGCCACGTGAGGTG	0.23 kcal/mol
TGTAACACGTGATATT	0.12 kcal/mol
CGTATCACGTGGGTTA	-0.14 kcal/mol
ATTGACACGTGCGGGG	-0.03 kcal/mol
TTGTGCACGTGGCGTC	-0.11 kcal/mol
GTAAACACGTGTTGAG	-0.08 kcal/mol
TCCTTCACGTGATTTG	0.43 kcal/mol
TCAGACACGTGGAGGG	-0.11 kcal/mol
TTATTCACGTGGGGAA	0.15 kcal/mol
TACGTCACGTGTGTCG	0.19 kcal/mol

Sequence	relative binding free energy
TATGCCACGTGTGTGG	-0.13 kcal/mol
GGATGCACGTGATATA	0.34 kcal/mol
GTGAGCACGTGGGATC	0 kcal/mol
GGAGTCACGTGGGGCT	-0.01 kcal/mol
CGATACACGTGGTGGG	-0.03 kcal/mol
GCTAACACGTGTGGTG	0.05 kcal/mol
CGTTACACGTGATATT	0.15 kcal/mol
GTGGACACGTGAAGAT	0.29 kcal/mol
AGTTTCACGTGTACGA	0.24 kcal/mol
AGAAGCACGTGTGTAT	0.06 kcal/mol
AGGGTCACGTGTTAGA	0.15 kcal/mol
GGCGTCACGTGTCAGG	0.2 kcal/mol
ATTCACACGTGTGTAG	0.12 kcal/mol
TGCCGCACGTGGGTAG	-0.25 kcal/mol
GAGGCCACGTGTGGAT	0.05 kcal/mol
GGCCACACGTGGGTGT	-0.21 kcal/mol
TATAGCACGTGGTTAA	-0.13 kcal/mol
AGGGGCACGTGCGTGG	-0.18 kcal/mol
CAGGACACGTGGGTAG	-0.16 kcal/mol
TGTATCACGTGAGAGG	0.34 kcal/mol
GTTTACACGTGGCTTA	0.12 kcal/mol
CCTGTCACGTGGGGGG	0.01 kcal/mol
